# Some of the results follow.
# Test system: PF3D7_0420300 AP2 domain 1 (GST-tagged)
# Test: gcPBM binding intensity (ln(normalized median fluorescence intensity)); higher = stronger DNA binding
# Outline: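 The binding buffer was 1× PBS containing 1% milk, 0.2 mg/ml BSA, 0.5% salmon testes DNA and 0.03% Triton X-100. In it, GST-tagged P. falciparum DNA-binding domains expressed in E. coli were applied for 1 h to an Agilent 4 × 180k array of primer-extended double-stranded 36-bp intergenic genomic probes plus negative controls. Binding intensity, read with Alexa488 anti-GST antibody and a 488 nm scan, is the highest Masliner-normalised natural-log median intensity across replicate spots of either probe orientation.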
row,Sequence,gcPBM binding intensity (ln)
1,TATATATTAAAACACACACACATATATATATATATA [CACACA_site3787],9.67
2,AATAAAAACTACATGTGTACATAATAAATACATATA [XGTACX_site755],9.53
3,TTTTTTCTTTTCTTTTTATTTTATTTTGTTTTATTT [CACACA_negctrl_site799],9.61
4,ATAATCCAAAAAAATCAAATAAAATAAAATAAAATA [CACACA_negctrl_site449],9.16
5,TAAAAATATTTAAACTGTACTATTTTATGTTAAATG [XGTACX_site6620],9.03
6,TGAACCAGATTTAGAAGTACTAAATATTACATACAT [XGTACX_site2437],9.13
7,TATATATTAGAAGATAGTACATATATATTTATTAAT [XGTACX_site1011],9.16
8,GCTCAATGTTTTACATGTACATATATATATATATAT [XGTACX_site8210],9.44
9,TGGTGATCAAAATATACATGCATATGTTCTGTTATT [TGCATGCA_site614],9.37
10,TATGATATCTATAATACACACATATACATAAGATCT [CACACA_site6652],9.54
11,TTAATATAACTTTTTGCACACTTAATTTTTTTTTTT [CACACA_site3364],9.44
12,TTATATAAAACATTAACACACAAAGAAAAAAAATTA [CACACA_site1793],9.73
13,TATTTTTACCCATAAAGTACACATAAATATAAAATA [XGTACX_site177],9.17
14,TATATATCTATATATTGTACATATGTTTGTATGTGT [XGTACX_site7420],9.42
15,ATATAAATCATTGGTTGTACATATAATATTTTATAA [XGTACX_site925],9.15
16,TAATATTTCTTATTTTATATTTGTATATGAATGGAT [XGTACX_negctrl_site278],9.17
17,CAAGTTCAAAATACAAGGAAGAAACAAAACTTGGCG [GTGCAC_negctrl_site600],9.55
18,ATAATATAATATAAAACACACATATGTACCTTCTAA [CACACA_site2761],9.65
19,TAAAAATATCTGTATACACACATATATATATATATA [CACACA_site6042],9.37
20,AAAAAAAAAAAAAAAAGTACAAATCTTTATTTATTA [XGTACX_site3305],8.75
21,AAAACAAATGCTTAAAGTACTTATTATTTTTCTTTT [XGTACX_site6324],9.22
22,TTCCTACTATTCAAACGTACAAAATATTTAAATAAT [XGTACX_site700],9.08

row,Sequence,gcPBM binding intensity (ln)
1,TATTATAAAACATTATGTACATATTCTGAAAAATAG [XGTACX_site6577],9.09
2,CAAAATAAAAAATTCACACACATATATATATATATA [CACACA_site2088],9.43
3,TATTTCTTATTTATTTTTTAAGGAAATTAAAGATTT [CACACA_negctrl_site258],8.66
4,AAAAATATGCTTCCATGTACTTAAAAAAAAAATTTA [XGTACX_site3617],8.95
5,ACGTTAGGCTTATTTGCACACTTGTATTAAAATTTT [CACACA_site4854],9.49
6,TCAACTTGATTTATATGTACACATATAAGTAATTAT [XGTACX_site1798],9.16
7,AAAAAAAATTTTCTTCTGTTGTATTTTTTATACGTT [GTGCAC_negctrl_site477],9.39
8,TATACAAACTATGATGCACACATATATATATGTATA [CACACA_site8327],9.39
9,AAAAAAAAGAAAAAAACACACAATGGAAAAAATGTA [CACACA_site3675],9.73
10,TATTTAGAAATAAATACACACATACATTTTTGTATA [CACACA_site4557],9.32
11,GTTTATTTTTTCATTTGTACACATAAATAAATATAT [XGTACX_site7752],9.39
12,GGTATATATTCTATCACACATATTTCCATGAAAATA [CACACA_site4728],9.42
13,TTAATTATATTATGCACACACAATTGGAAAAAAAAT [CACACA_site1958],9.64
14,GAAAAACAAATATATTAACACACAAACATATAAACA [CACACA_site9315],9.97
15,ATGAAAAAGTGCTGGATTCTAAAGAAAAAAAAAAAA [CACACA_negctrl_site962],8.85
16,AAATATTGTTTTTTATGTACTTATTTTTATTTATTT [XGTACX_site3481],9.48
17,ATAAAATCAACAAATCAGGATGTCACGTAAATATCA [CACACA_negctrl_site1009],9.61
18,ATATTTTATATATTTGTGCACAATATTATAATATAT,9.19
19,AAAAAAAAAAAAAAAAGTACACATAATTGTATATGT [XGTACX_site6339],9.21
20,TTACATATATTGGGGTGTACATATATTTTCCTTCAC [XGTACX_site6224],9.41
21,AAATCATATTCTTATTTTATTTTTTTTATTTTTTAT [XGTACX_negctrl_site166],9.46
22,GTTATATGAACTTATATACACACCATTTTTGTAAAT [CACACA_site695],9.44

row,Sequence,gcPBM binding intensity (ln)
1,TGTAGATATTTTTGGGGTACTTTATAAAGAACTAGT [XGTACX_site5635],9.1
2,AAAAAAATTAAATGGGGTACAATAAGGGTCAAATAT [XGTACX_site8669],9.79
3,GGATAATCATACGAAGCATGCTGAATTTCCAAATAA [TGCATGCA_site1013],9.17
4,TTTTATTATATATATTGTACATATATTTTTATTTTT [XGTACX_site1564],9.35
5,AAAAAAAAAAATGGCTGTACATAATATTTAAATAGG [XGTACX_site4286],9.36
6,ATATTTATAACTTGGTGTACTTTGAAAAAAAAAAAA [XGTACX_site5194],8.87
7,AAAAAAAAAAAAAACACACATACATACATACATATA [CACACA_site4121],9.74
8,ATAATTTTTTAGATCACACATATAAATAAATAAATA [CACACA_site5175],9.1
9,TTATATTAGCCGATGGTGCATATATTTATAGGAAAA [GTGCAC_site9518],8.95
10,ACATATTTATATGTCTGTACAAATATGCAATTTTTT [XGTACX_site5516],9.08
11,TTAGATAGATTTGTACGTACTTATTATAACGTATCA [XGTACX_site5067],8.95
12,AATTTATAAATAATTAATTTGATAAATTATAAAGGG [GTGCAC_negctrl_site544],8.93
13,TATTTTGTATTCATTTGTCACATATAATAGATAGGA [TGCATGCA_negctrl_site9],9.1
14,AATATATGTATATCCACACACATATATATATATATA [CACACA_site1633],9.52
15,ATAGATATAACATATGCATGTAAAATATAACCACTC [TGCATGCA_site60],9.55
16,TGTGCGGAAATAAGTGCACACATAGATATATGTATT [CACACA_site9227],9.37
17,TTATACGAAGTACGTACACACACTTATATGTTACTA [CACACA_site4019],9.63
18,AATAAATAGAAAGAGGTGCTACATTATATTATTTAT,9.37
19,TACAAAAATATATAAACACACAAATATAATATATAT [CACACA_site2942],9.74
20,ATAAATCAAATGCACACACACAAAAAAAAAAAAAAA [CACACA_site6221],9.77
21,TAATAAATGACAAATTAACACACATATATTATATAT [CACACA_site9294],9.67
22,CGCTCTCTTTAATATTGTACATATATATTATATATA [XGTACX_site7017],9.41

row,Sequence,gcPBM binding intensity (ln)
1,TATATATAATATTTTTCACACACCATTTCCTTAAAC [CACACA_site1341],9.48
2,TGTATCTATAATAAAACACACATTTTTAATGTGCTC [CACACA_site6788],9.23
3,TTTTTTTTTTTTTTTTGTACATAATAAATGTTCTTA [XGTACX_site6754],8.64
4,AAAATAACATAAAAGAGTACTAAACCAAGATCAAAT [XGTACX_site7973],9.78
5,TATATTTATATTCTTACATTTTTTATGTTTTTTTTT [CACACA_negctrl_site1017],9.24
6,GTCATATTATTCTTTTCACACACGCGTTAATAATAA [CACACA_site9302],9.89
7,TATTATAATATGTAGCGTACATTTTTTCTTTCTTTT [XGTACX_site7831],9.18
8,TATAAATATATATATACACACACATACACAAAAAAA [CACACA_site9191],10.2
9,ATATATTATATGTACACACACATATAAGGGATTATA [CACACA_site5],9.65
10,AAAAATATGAAGACACAATATAGAAATAAAAATATA [XGTACX_negctrl_site244],9.44
11,TATTACTTGATATATACACACATATAACATAAATGC [CACACA_site7783],9.45
12,TAGAATAAACCAAGAAGTACTGTTTAATGAAAAGTA [XGTACX_site5712],9.37
13,ATACCTAAAAAATATACACACATATTTATAAATATA [CACACA_site7260],9.6
14,TTTATGGATGTGTATGCATGCCTAAATAAATATATG [TGCATGCA_site916],9.1
15,TAAATAATGTAAAAAACATCATCAAAATGTTAATTA [CACACA_negctrl_site1768],9.09
16,ACGACATATGGATGATGTACTATCTTTATTATACAT [XGTACX_site6857],9.33
17,CAATATAAAATAAAATGTACTTGTAGTAAAGGGATA [XGTACX_site1452],9.49
18,ATAAAGGTTTTCCAAGCATGCCACATAGTGACATAC [TGCATGCA_site193],9.05
19,AGATAGATACATACACGTACATATATATATACACAT [XGTACX_site4755],9.53
20,AAGGTTATATAAAAAAGTACGCATAAGATGTTGTTC [XGTACX_site807],9.45
21,TACTGTATTATAATTATGATTGACGAAATTAAAAAT [GTGCAC_negctrl_site358],9.06
22,ATTAGAAAAAAGATAGCACACACGGCCCAATATATA [CACACA_site2417],9.79

# Source: the supplement of paper PMC11417369
